Measurements: PubChem BioAssay AID330 (DTP/NCI, 2004)
Inconclusive results and toxic doses are left out. Certain results were filed several times, with different values. Only these are listed. An entry can have further records. Values that stand side by side are repeats in other runs, samples, wells, individuals or studies. What stands in brackets tells the records apart. The letters are not those of the source and start again with each entry.

System: P388 leukemia ip, CD2F1 mice, survival T/C
Test: NCI In Vivo Anticancer Drug Screen. Data for tumor model P388 Leukemia (intraperitoneal) in CD2F1 (CDF1) mice
Details: endpoint: median survival time, higher = longer survival
[1] = dose: 200.0 mg/kg/injection, schedule: Q04DX003 (ip), vehicle: saline with Tween-80

`COc1cc2cc[n+]3c(C)c4ccc(OC)c(OC)c4cc3c2cc1OC` (tested in a mixture with another compound) was tested, and the T/C (dose: 60.0 mg/kg/injection, schedule: Q01DX009 (ip), vehicle: saline) was 107 % of control and 150 % of control.

For `CCCSc1ccc2nc(NC(=O)OC)[nH]c2c1`, the T/C (dose: 240.0 mg/kg/injection, schedule: Q01DX005 (ip), vehicle: saline with Tween-80) was 120 % of control and 157 % of control.

For `NC(CCC(=O)NC(CSC(c1ccccc1)(c1ccccc1)c1ccccc1)C(=O)NCC(=O)O)C(=O)O` (centres undefined), the T/C (dose: 240.0 mg/kg/injection, schedule: Q01DX005 (ip), vehicle: Klucel (hydroxypropylcellulose) (HPC)) was 123 % of control and 153 % of control.

In the case of `COc1cc(C2c3cc4c(cc3CC3COC(=O)N32)OCO4)cc(OC)c1OC` (centres undefined), the T/C (dose: 30.0 mg/kg/injection, schedule: Q01DX005 (ip), vehicle: Klucel (hydroxypropylcellulose) (HPC)) is reported as 108 % of control, 111 % of control, 151 % of control.

`CCOC(=O)C(Cc1ccccc1)NC(=O)N(CCCl)CCCl` (centres undefined) was tested, and the T/C (dose: 100.0 mg/kg/injection, schedule: Q04DX003 (ip), vehicle: saline with Tween-80) was 109 % of control and 154 % of control.

With `Nc1cc2[nH]cnc2c(=O)[nH]1` the T/C (dose: 50.0 mg/kg/injection, schedule: Q01DX009 (ip), vehicle: suspension in saline) was 100 % of control, 118 % of control, 150 % of control.

For `N#Cc1ccc(NC(=O)Nc2nccs2)cc1`, the T/C (dose: 100.0 mg/kg/injection, schedule: Q01DX009 (ip), vehicle: distilled water + Tween-80) was 90 % of control, 108 % of control, 170 % of control.

In the case of `ClCCN(CCCl)c1ccc(CCN2CCOCC2)cc1`, the T/C (dose: 50.0 mg/kg/injection, schedule: Q01DX009 (ip), vehicle: saline) is reported as 106 % of control and 151 % of control.

`CC(=O)OC(C(=O)O)N1C(=O)C2C3C=CC(C2C1=O)C1C2C(=O)N(C(OC(C)=O)C(=O)O)C(=O)C2C31` (centres undefined) was tested, and the T/C (dose: 200.0 mg/kg/injection, schedule: Q01DX009 (ip), vehicle: water) was 121 % of control and 175 % of control.

With `C=C1C(O)C2(O)OCC34C(CC5C(C)=CC(=O)C(O)C5(C)C23)OC(=O)C(OC(=O)C(C)(O)CC)C14` (centres undefined) the T/C (dose: 2.0 mg/kg/injection, schedule: Q01DX009 (ip), vehicle: saline + alcohol) was 114 % of control and 154 % of control.

In the case of `COc1cccc2c1C(=O)c1c(O)c3c(c(O)c1C2=O)C[C@@](O)(C(=O)CN1CCN(C)CC1)C[C@@H]3OC1CC(N)C(O)C(C)O1` (some centres undefined), the T/C (dose: 12.5 mg/kg/injection, schedule: Q01DX009 (ip), vehicle: water) is reported as 100 % of control and 159 % of control.

In the case of `COc1cccc2c1C(=O)c1c(O)c3c(c(O)c1C2=O)C[C@@](O)(/C(CO)=N/NS(=O)(=O)c1ccc(C)cc1)C[C@@H]3OC1CC(N)C(O)C(C)O1` (some centres undefined), the T/C (dose: 6.25 mg/kg/injection, schedule: Q01DX009 (ip), vehicle: water) is reported as 116 % of control and 171 % of control.

In the case of `COc1ccc2c(c1O)-c1cccc3c1[C@@H](C2)N(CCCl)CC3`, the T/C (dose: 50.0 mg/kg/injection, schedule: Q04DX003 (ip), vehicle: other) is reported as 97 % of control and 157 % of control.

`O=C1CCC(n2cc(F)c(=O)[nH]c2=O)O1` (centres undefined) was tested, and the T/C [1] was 98 % of control, 104 % of control, 178 % of control.

In the case of `Nc1nc2c(ncn2C2OC(CO)C(O)C2O)c(=O)[nH]1` (centres undefined), the T/C [1] is reported as 100 % of control [sample A] and 187 % of control [sample B].

In the case of `CNC(=O)OCc1c(COC(=O)NC)c(-c2ccc(Cl)c(Cl)c2)n(C)c1C`, the T/C (dose: 25.0 mg/kg/injection, schedule: Q01DX009 (ip), vehicle: distilled water + Tween-80) is reported as 117 % of control and 163 % of control.

With `CCCCCCCCCCCC(=O)NCC(=O)NC1C(C)OC(Nc2ncnc3nc[nH]c23)C(O)C1O` (centres undefined) the T/C (dose: 2.0 mg/kg/injection, schedule: Q01DX009 (ip), vehicle: other) was 118 % of control and 150 % of control.

`COC(=O)[C@@]12OC[C@]34[C@H]([C@@H](O)[C@@H]1O)[C@@]1(C)CC(=O)C(O)=C(C)[C@@H]1C[C@H]3OC(=O)[C@H](OC(=O)/C=C(\C)C(C)CO)[C@@H]24` (some centres undefined) was tested, and the T/C (dose: 1.0 mg/kg/injection, schedule: Q01DX009 (ip), vehicle: saline + alcohol) was 121 % of control and 155 % of control.

`CCN(CC)CCNc1ccc(CO)c2oc3ccc(O)cc3c(=O)c12` was tested, and the T/C (dose: 200.0 mg/kg/injection, schedule: Q01DX005 (ip), vehicle: saline with Tween-80) was 121 % of control and 163 % of control.
